The structures appear in SMILES notation. A structure can be active in one record and inactive in another.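 Method: cells in 96-well plates; compound added at one concentration; 48 h incubation; percent growth measured; values under 10 scored active.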 Certain results were filed several times, with different values. The list is limited to them. There may be further records. This drug was run again and again over the years, at its own concentration, as given; each value is one run. Signs of the kind (2×) stand for listed records that agree.

The subject of the assay is SN12C renal. The assay can be described thus: NCI-60 one-dose screen, 48 h (100 = growth as untreated, 0 = no growth, -100 = all killed).

As for `COc1cccc2c1C(=O)c1c(O)c3c(c(O)c1C2=O)C[C@@](O)(C(=O)CO)C[C@@H]3OC1CC(N)C(O)C(C)O1` (stereo not given in full), the growth entry (0.25 µM, runs of 2012) was “inactive: 26.2, 15.7, 28.3, 21.2, 24.2, 34.7, 41.2, 25.8 (2×), 27.1, 24.7, 21.3, 24.1, 28.7, 25.9, 16.4, 29.4, 23.8, 41.8, 35, 31.1 (2×), 29.5 (3×), 27.9, 28.4, 27.5, 27.7, 32.4, 29.8, 25.2 (2×), 18.8, 33.3, 28.5, 28 (2×), 25.3 (2×), 40.2, 36.2, 34.5, 41.7, 47.3, 39.7, 43.6, 46.4, 44.2, 38.3, 40.9, 38.2, 42.4, 47.6, 25.4, 25, 22.2, 26.8, 26.9, 22.6, 19, 21.4, 20.7%”; the growth result (0.25 µM, runs of 2013) is “inactive: 20.4 (2×), 22, 24.3 (2×), 23.7, 40.3, 32.9 (2×), 31.1, 29.9, 30.5, 28.5 (2×), 34.8, 33.5, 40.2, 28.6, 34.1, 35.6, 24.7 (2×), 33.2, 31.5, 27, 32.8, 27.5, 24.1, 26.2 (2×), 25.8, 27.7, 23.3, 32.5, 29.4, 28.2, 28.4 (2×), 25.3, 24.9, 30.2, 36.9, 29.6, 29.2, 39, 37.1, 20.7, 23.9, 22.1 (2×), 26.6, 30.1, 19, 41, 18.8, 28.1, 12.2, 21, 20.3, 26.1, 19.2, 10.1, 22.7% and active: -23.5, 7.88, 5.67, 2.31, 9.46%”; the growth entry (0.25 µM, runs of 2014) was “inactive: 34.4, 22.1 (2×), 22.2 (2×), 11.8, 12.2, 12.8, 17.5 (2×), 19.4, 19.3, 14.5 (2×), 10.2, 20.4 (2×), 25.3, 21.5 (2×), 20.7, 18.9 (2×), 18.2, 20.8, 14.7, 27.7, 28.6, 24.1, 21.4, 19.5, 14.1, 15.6, 10.1 (2×), 14.9 (2×), 18.7, 11.6, 15.8, 20.1, 20.6, 22.4, 18.6 (2×), 36.3, 26, 10.7, 12.6, 16.5, 14.2, 22.6, 10.5, 13.4, 15, 16, 25.9, 22.7% and active: 6.18, 5.65, 9.58, -11.8, -13.9, -0.933, 3.26, 9.93, 7.84, 0.962, 9.07%”; the growth result (0.25 µM, runs of 2015) is “inactive: 31.2, 12.4, 14.2, 14.1 (2×), 16 (2×), 14.3, 10.6, 23.8, 23.7, 14, 15.5, 24.7, 18.1, 19.7 (3×), 20.9, 20.3, 14.5 (2×), 19.2, 32.5, 37.3, 21.2, 17 (2×), 15, 17.2 (2×), 18.8 (4×), 18.4, 22.8 (3×), 18.7, 16.8, 16.5, 18.6, 11.9, 16.3, 34.8, 29.5, 27.5, 10.8 (2×), 13.6, 11.5 (2×), 21.6, 36.8, 30.6, 21.7, 22.1, 30.7, 15.6, 16.4, 21, 27.4, 28.1, 31.5% and active: 5.4, 7.73, 9.01, 4.01%”; the growth result (0.25 µM, runs of 2016) is “inactive: 14, 37.4, 24.9 (2×), 21 (2×), 24.8, 23.8, 27.3 (2×), 23.4, 25.5, 18.9 (2×), 15.8 (2×), 15.5, 22.4, 12.1, 19.9 (2×), 23, 18.4 (3×), 15.7, 22.3, 20.7 (2×), 14.9, 18.2, 18.8, 15, 19.2, 17, 18, 20.1 (2×), 20.9 (2×), 20.4, 21.6 (2×), 22.2 (2×), 20.8 (2×), 18.5, 19 (2×), 30.7, 19.4, 22.5, 21.3 (2×), 21.5, 23.3, 25.4, 24.2, 26.6, 28.4, 26.2, 27.1, 27, 26.7, 26.8, 19.3, 25.9, 20.5%”; the growth entry (0.25 µM, runs of 2017) is “inactive: 21.7, 27.4, 18.6 (3×), 19.7 (2×), 14.1 (2×), 13.5 (2×), 14 (3×), 17.9 (2×), 15.5 (3×), 17 (3×), 16.4, 15.6, 16.3 (3×), 19, 18.8, 13.7 (2×), 12.3, 12, 14.4 (2×), 18.5 (2×), 17.5, 14.7, 18.4 (2×), 20.8 (2×), 15.8, 18 (2×), 13.9, 13.8 (3×), 16.5 (2×), 18.2, 20.7, 22.6, 20.1, 23, 15.7, 16, 19.5, 15.3, 11.6, 12.8, 12.5, 14.8%”. Also, the growth entry was “inactive: 15.7, 20.5, 13.1 (2×), 21, 18.8 (2×), 19, 18.5 (2×), 19.5, 16.5, 23.2, 18.6 (2×), 21.5 (3×), 12, 17.4, 15.1 (2×), 13.8, 17.2, 16.4, 17.9, 24.9, 18.2, 16.8, 19.4, 18, 19.2, 20.3 (2×), 18.7 (2×), 17.5, 15.3, 20.7, 16.3%” (0.25 µM, runs of 2018); “inactive: 13.5 (2×), 16.3 (2×), 10.3, 10.6, 14.9, 15.7 (2×), 19.3, 18.6, 16.7, 20.8 (2×), 21.6, 13.8, 12.9 (2×), 13.7, 12.8, 17, 15.6, 17.9 (2×), 17.5, 20.3, 17.4, 15, 17.2, 15.8 (2×), 16.8, 14.1 (2×), 11.9, 10.8, 14.3, 13.9, 26, 18% and active: 7.75, 9.09, 9.93, 9.22%” (0.25 µM, runs of 2019); “active: 8.02% and inactive: 10.7, 11.8 (2×), 11.1, 22.4, 18.6, 16.7, 14.1, 18.8, 20.7, 20.1, 28.1, 23.9, 19.5 (2×), 15.4, 21.4, 16.8%” (0.25 µM, runs of 2020); “inactive: 27, 46.4, 29.5, 22.5, 23.2, 19 (2×), 16.4, 22.6 (2×), 16.5, 15.8, 16 (2×), 18.6 (2×), 18.1 (2×), 20.6, 18.9 (2×), 20.4, 18.5, 17.2, 14.2, 14.9, 14.8, 12.5, 17.9, 14.5, 15.7, 15.5, 16.3, 23, 34.1, 31.3, 13.1, 10.8, 15.1 (2×), 13.5, 14, 21.4, 11.3% and active: 9.13%, 2.48%, 3.68%” (0.25 µM, runs of 2021); “active: 0.258, -2.5, 9.23, -7, 0.787, 9.41, 8.29, 7.85% and inactive: 11.1, 12.4 (2×), 14.1, 14.8, 20.6, 10.5, 13.9, 12.2, 43.1, 51.6, 15, 43.8, 69.8, 12.1, 15.8, 16.3, 15.7, 13.3%” (0.25 µM, runs of 2022); “active: -17, -18.6, -14.8, -12.7, -20.2, -10.7, -26.5, -20.5, -33.1, 4.19, -4.12, -25.8, -26.4, -24.2, -39.9, -26.8, -21%” (25 µM, runs of 1991). For the same molecule, the growth result was “active: -20.6, -5.39, -15.1, -31.1, -8.22, -13.4, -5.47, -25.4, -47.3, -18.5, -18.7, -21.1 (4×), -32.3, -19.7, -12.7, -29, -12.2, -17.5, 4.37, -23.8 (2×), -43.6, -24.8, -24.4 (2×), -61.1, -27.7, -30.8, 2.43, -31.8, 2.73, -36.2 (2×), -20.9, -32.6, -14.5, -40.8, -36.9 (2×), -11.1, -27.9, 1.86, -11.7, 4.68, -32, -19.2, -28.1, -25.9, -36.8, -46.5, -54.1, -56.9, 2.8, -26.9 (2×), -45.8, 6.34, -3.93, -6.46, -49.2, -54.4, -45.7, -34.4, -10.5, -11.8, -7.57, 4.81, -8.77, 2.12, -2.35, -20.4, -13.7, -23.7, -68.6, -36.3, -3.25, -39.8, -22.2, -23.3, -29.5 (2×), 5.97, 6.32, -9.52, -48.8, -18.1, -42.2, -31.7, -46.6, -14.4, 3.52, -50.1, -27.1, -43.9, -31.3, -13.5, -44.9, -30.6, -38.5, -15.8, -54.8, -26, -42.1, -41, -20.7, -24, -34.8, -32.2% and inactive: 11.1, 12.6, 22.8, 10.8%” (25 µM, runs of 1992); “active: -27, 2.68, -22.7, -45.9, -47.2 (2×), -61.6, -15.3, 1.52, -35.3, -56.3, -26.7, -24.5, -42.4, 0.94, -22.9, -30.1, -21, -52.1, -35.4, -29.3, -37.8, -23.6, -31.5, -35.6 (2×), -49, -18.2, 0.808, -21.8, -60, -13.7, -29.7, -14.1, -49.1, -38.8, 5.56, -23.8, -37, -38.5, 3.25, -27.2, -59.1, -12.3, -39.8, -44.6%” (25 µM, runs of 1993); “active: 6.45, -2.63, -29.9, -14.4, -52.7, -42.4, -13, -45.6, 3.99, -0.4, -40.5, -29.8, -14.8, -27.6, -22.1, 2.4, -40.8, -28.2, -45.8, -26, -39.6, -46.1, -30.3, 3.52, -42.7, -29.5, -22.2, -7.96, -61.6, -16.5% and inactive: 103%” (25 µM, runs of 1994).

The record behind these values is PubChem BioAssay (NCI).
